Experimental data from PMC7671991.
These are yes or no findings as the source states them, for the method shown. For some assays here: In cells and extracts the contact can be indirect. Some results given as binding are weak or reduced against the parent protein; the word gives no strength. For some assays here: Sequences can lack the tags named with a protein.

Protein sequences, listed by entry. Tags and fused reporters are not part of them. Residues count along the entry.
UniProt Q92624: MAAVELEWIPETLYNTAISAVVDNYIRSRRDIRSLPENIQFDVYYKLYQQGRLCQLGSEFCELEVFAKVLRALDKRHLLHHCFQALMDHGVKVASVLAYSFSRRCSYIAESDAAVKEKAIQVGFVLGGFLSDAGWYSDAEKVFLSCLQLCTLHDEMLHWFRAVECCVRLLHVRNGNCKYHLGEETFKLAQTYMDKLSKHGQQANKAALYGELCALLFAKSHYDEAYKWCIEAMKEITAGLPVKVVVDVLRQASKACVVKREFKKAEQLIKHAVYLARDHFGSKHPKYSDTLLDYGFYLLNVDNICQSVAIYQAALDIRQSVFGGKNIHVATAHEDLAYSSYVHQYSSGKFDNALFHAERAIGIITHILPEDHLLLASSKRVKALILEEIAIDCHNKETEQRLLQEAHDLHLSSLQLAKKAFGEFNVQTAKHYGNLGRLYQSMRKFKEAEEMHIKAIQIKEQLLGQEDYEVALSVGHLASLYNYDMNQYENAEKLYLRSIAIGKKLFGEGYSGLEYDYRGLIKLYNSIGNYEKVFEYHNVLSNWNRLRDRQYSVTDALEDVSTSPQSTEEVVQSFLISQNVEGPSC
UniProt Q76MZ3, residues 268-589: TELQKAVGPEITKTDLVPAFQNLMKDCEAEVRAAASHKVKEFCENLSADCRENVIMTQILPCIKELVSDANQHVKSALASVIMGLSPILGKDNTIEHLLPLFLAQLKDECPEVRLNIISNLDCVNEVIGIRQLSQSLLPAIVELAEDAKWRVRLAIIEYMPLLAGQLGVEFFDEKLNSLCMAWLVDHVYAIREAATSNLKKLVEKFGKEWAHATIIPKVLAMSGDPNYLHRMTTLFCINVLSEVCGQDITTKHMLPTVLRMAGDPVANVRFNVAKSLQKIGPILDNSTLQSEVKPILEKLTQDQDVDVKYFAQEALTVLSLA
UniProt P63170: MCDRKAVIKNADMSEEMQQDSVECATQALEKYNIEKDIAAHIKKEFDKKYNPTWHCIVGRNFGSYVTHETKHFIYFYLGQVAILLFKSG

Key:
[1] = molecular target: LexA BD-PAT1a full-length (protein interacting with APP tail 1a) (human) (UniProt Q92624); assay: two-hybrid; LexA BD baits (pHybLex/Zeo) and GAL4 AD preys (pPC86) in yeast L40; growth on selection medium lacking histidine with 20 mM 3-aminotriazole; screen of an adult mouse brain cDNA library and retransformation of the isolated clones
[2] = molecular target: T1, LexA BD-gephyrin (UniProt Q03555); assay: as above
T1 sequence: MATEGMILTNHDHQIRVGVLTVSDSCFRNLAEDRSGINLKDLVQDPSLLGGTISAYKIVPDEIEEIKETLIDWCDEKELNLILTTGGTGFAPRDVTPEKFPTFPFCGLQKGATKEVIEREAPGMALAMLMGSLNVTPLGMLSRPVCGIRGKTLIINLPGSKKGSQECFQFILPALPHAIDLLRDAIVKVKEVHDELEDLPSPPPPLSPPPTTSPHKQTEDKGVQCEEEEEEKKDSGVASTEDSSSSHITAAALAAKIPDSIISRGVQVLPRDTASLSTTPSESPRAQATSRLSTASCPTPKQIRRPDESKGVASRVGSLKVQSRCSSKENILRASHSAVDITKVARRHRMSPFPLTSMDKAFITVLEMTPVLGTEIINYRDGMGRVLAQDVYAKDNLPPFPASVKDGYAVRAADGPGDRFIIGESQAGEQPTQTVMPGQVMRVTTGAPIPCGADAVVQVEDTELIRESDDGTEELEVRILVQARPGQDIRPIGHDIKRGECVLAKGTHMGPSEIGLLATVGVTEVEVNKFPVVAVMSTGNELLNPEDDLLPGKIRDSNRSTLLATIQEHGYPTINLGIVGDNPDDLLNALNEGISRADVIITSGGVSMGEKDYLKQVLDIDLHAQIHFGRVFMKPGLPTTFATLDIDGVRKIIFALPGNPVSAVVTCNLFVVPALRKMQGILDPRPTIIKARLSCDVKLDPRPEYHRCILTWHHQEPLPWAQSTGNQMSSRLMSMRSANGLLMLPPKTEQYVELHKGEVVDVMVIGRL

[3] = molecular target: T2, Flag-tagged full-length RME-6 (mouse) (UniProt Q6PAR5); assay: co-IP; N2a cells co-transfected with PAT1a HA and Flag RME-6 forms; lysis in 50 mM Tris/HCl pH 7.5, 150 mM NaCl, 5 mM EDTA, 1% NP40; IP with anti-Flag (M2) by the results and legend (HA beads by the methods); Western blot with anti-Flag and anti-HA
T2 sequence: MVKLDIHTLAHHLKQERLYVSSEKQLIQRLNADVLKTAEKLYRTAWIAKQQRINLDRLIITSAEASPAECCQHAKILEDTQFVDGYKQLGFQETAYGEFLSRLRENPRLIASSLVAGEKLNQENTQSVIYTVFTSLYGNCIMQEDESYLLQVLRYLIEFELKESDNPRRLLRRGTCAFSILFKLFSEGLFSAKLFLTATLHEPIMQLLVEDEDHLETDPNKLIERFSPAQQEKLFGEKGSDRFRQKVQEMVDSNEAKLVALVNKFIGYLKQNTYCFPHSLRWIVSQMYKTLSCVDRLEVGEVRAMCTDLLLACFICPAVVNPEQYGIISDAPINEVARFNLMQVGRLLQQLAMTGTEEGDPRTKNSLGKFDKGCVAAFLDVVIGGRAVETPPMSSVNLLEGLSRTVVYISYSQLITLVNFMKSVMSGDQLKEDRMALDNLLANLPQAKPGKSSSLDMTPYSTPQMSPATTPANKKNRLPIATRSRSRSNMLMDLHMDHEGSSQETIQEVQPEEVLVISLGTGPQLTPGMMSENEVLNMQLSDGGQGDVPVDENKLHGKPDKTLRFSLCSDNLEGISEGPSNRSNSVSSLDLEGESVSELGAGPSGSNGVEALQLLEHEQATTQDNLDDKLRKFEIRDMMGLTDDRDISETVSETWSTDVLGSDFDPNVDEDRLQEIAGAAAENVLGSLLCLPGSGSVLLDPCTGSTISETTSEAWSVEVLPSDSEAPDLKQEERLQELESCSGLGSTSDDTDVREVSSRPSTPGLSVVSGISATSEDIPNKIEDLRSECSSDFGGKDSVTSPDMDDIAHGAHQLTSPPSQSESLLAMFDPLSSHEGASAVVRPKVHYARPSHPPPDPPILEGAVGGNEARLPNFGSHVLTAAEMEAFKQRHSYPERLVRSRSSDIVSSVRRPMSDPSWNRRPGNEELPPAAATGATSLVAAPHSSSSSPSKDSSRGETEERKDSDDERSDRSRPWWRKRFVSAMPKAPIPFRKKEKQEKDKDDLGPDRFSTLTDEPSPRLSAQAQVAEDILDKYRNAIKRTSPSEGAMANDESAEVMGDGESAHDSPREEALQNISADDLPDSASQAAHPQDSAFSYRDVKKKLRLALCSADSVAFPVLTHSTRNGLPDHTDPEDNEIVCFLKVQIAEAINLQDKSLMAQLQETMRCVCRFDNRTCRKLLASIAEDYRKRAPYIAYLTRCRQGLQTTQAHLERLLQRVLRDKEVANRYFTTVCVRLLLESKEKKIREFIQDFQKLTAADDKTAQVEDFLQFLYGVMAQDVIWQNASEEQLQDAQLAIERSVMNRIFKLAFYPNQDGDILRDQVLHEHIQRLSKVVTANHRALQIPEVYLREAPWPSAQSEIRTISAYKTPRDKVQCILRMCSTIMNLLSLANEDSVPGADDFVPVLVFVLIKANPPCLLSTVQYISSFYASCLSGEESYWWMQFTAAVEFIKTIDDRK

[4] = molecular target: T2, Flag-tagged full-length RME-6 (mouse); assay: co-IP; as the co-IP of PAT1a HA and Flag RME-6, cell lysate treated with shrimp alkaline phosphatase before the co-immunoprecipitation; data not shown
[5] = molecular target: T3, GST-Krba1 (514-1044) (Mus musculus (house mouse)) (UniProt Q6NXZ1); assay: pull-down; GST or GST fusion on Glutathione Sepharose beads; 35S-labelled in vitro translated PAT1a; buffer H (50 mM Tris pH 6.8, 50 mM KCl, 100 mM NaCl, 2 mM CaCl2, 2 mM MgCl2, 0.1% Triton X-100, 5 mM dithiothreitol), 90 min; SDS-PAGE and autoradiography; only the target purified
T3 sequence: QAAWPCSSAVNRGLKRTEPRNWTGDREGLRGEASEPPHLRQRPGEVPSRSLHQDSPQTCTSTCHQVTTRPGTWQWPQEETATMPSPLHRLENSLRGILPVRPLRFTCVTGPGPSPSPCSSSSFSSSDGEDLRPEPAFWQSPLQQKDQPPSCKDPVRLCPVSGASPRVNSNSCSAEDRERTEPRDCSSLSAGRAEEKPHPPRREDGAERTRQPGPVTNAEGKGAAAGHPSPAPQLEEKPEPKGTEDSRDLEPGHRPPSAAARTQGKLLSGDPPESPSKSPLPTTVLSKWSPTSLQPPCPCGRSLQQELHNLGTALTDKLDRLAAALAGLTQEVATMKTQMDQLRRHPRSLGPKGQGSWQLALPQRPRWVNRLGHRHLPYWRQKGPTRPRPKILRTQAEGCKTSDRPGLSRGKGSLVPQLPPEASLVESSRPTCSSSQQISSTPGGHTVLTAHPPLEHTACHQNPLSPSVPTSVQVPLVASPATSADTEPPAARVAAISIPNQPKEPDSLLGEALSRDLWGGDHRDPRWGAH

[6] = molecular target: T4, GST-RME-6 (561-1170) (Mus musculus (house mouse)) (UniProt Q6PAR5); assay: as above
T4 sequence: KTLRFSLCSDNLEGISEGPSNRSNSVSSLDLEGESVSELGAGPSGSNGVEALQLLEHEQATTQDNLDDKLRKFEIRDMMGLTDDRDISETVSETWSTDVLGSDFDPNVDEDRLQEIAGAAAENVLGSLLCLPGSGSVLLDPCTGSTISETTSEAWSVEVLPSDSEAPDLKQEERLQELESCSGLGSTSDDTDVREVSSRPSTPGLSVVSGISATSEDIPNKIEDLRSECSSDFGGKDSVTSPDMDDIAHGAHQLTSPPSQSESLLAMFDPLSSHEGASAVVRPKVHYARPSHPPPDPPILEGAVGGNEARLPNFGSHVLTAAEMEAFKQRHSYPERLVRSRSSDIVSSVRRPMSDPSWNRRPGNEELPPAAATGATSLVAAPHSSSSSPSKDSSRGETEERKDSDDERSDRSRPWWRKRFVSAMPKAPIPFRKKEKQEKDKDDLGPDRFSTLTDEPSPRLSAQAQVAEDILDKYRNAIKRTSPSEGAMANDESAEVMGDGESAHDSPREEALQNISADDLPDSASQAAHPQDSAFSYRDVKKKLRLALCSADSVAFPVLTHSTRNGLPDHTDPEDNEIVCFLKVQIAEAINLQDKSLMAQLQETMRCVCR

[7] = molecular target: T5, GST-sf3b155 (1-598) (Mus musculus (house mouse)) (UniProt Q99NB9); assay: as above
T5 sequence: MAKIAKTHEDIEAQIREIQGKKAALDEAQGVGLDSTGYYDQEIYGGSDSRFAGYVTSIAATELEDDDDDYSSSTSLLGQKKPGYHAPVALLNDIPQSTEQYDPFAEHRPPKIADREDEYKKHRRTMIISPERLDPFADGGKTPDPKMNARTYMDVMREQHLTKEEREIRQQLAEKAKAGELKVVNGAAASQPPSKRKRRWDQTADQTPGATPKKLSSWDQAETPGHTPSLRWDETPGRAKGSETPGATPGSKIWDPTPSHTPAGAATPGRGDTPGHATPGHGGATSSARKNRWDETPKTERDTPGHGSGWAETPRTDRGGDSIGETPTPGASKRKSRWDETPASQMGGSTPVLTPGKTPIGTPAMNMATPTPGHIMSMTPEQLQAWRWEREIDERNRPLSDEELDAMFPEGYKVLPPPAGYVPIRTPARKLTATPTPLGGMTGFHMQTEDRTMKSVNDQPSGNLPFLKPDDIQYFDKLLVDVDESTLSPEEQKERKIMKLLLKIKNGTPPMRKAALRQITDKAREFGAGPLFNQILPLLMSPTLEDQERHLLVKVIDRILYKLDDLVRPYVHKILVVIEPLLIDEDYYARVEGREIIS

With “GAL4 AD-PR65 (268-590) (alpha-subunit of protein phosphatase 2A) (from UniProt Q76MZ3 268-589) (domain or fragment)” the binding [1] was “no binding”.

GAL4 AD-DLC1 (from UniProt P63170 1-89) was tested, and the binding [1] was “no binding” and the binding [2] was “binds”.

With “C-terminally HA-tagged PAT1a (from UniProt Q92624 1-585)” the binding [3] was “binds weakly” and the binding [4] was “binds”.

For “in vitro translated, 35S-labelled PAT1a (from UniProt Q92624 1-585)”, the binding [5] was “binds”, the binding [6] was “binds” and the binding [7] was “binds”.
